According to PubChem BioAssay AID463173 (ICCB-Longwood Screening Facility, Harvard Medical School, 2010):
About 1,700 (3.3%) of roughly 52,000 compounds were called active. Rule as the data show it: active = survival mostly below about 52% (no sharp cut-off); inactive = mostly above about 56%. The list shows a part of the results.

These compounds were tested on Wild type (assay: S. aureus survival, RN4220 and DeltatarO strains – OD600, teichoic acid synthesis inhibitors, primary screen (AID 463173)). Conditions: S. aureus RN4220 wild type/DeltatarO growth, OD600, 18 h, active compounds read low, screened at 18.75 µg/mL (by protocol).

| Compound | survival |
| --- | --- |
| CCc1nnc(NC(=O)CSc2nc3c([nH]c4ccccc43)c(=O)n2-c2ccc(OC)cc2)s1 | inactive: 128% |
| CC(C)c1ccc(/C=C(\C#N)c2nc(-c3ccc(O)cc3)cs2)cc1 | active: 0% |
| Cc1cc[n+](CC(=O)N2CCCCC2)cc1 | inactive: 116% |
| O=C(C1CCCCC1)N(Cc1cccnc1)c1nc2ccc(F)cc2s1 | inactive: 78% |
| CCc1cccc(NC(=O)COc2cc(=O)n(CC)c3ccccc23)c1 | inactive: 120% |
| Cn1ccc2cc(S(=O)(=O)N3CCN(C(=O)Nc4ccccc4F)CC3)ccc21 | inactive: 91% |
| CCOC(=O)c1c(Nc2cccc(C)c2)nnc(-c2ccccc2)c1-c1ccccc1 | active: 0% |
| Nc1nc(N)c(S(=O)(=O)c2ccccc2)c(Nc2ccc(F)cc2)n1 | inactive: 67% |
| CCOC(=O)c1cccc(NC(=O)c2sc3nc[nH]c(=O)c3c2C)c1 | inactive: 72% |
| COc1cc(-c2ccno2)ccc1S(=O)(=O)N1CCN(c2ccc(F)cc2)CC1 | inactive: 63% |
| CC(C)C(=O)N1CCN(c2ccc(NC(=O)Cc3ccccc3)cc2Cl)CC1 | inactive: 114% |
| CCc1ccc2occ(CC(=O)N(Cc3ccc(N(C)C)cc3)C3CCS(=O)(=O)C3)c2c1 (centres undefined) | inactive: 78% |
| O=C(CSc1nc2ccccc2nc1Cc1ccccc1)N1CCCc2ccccc21 | inactive: 71% |
| CCCc1cc(=O)[nH]c(Nc2ccc(O)cc2C)n1 | inactive: 110% |
| Cc1cccc(N(C)S(=O)(=O)c2nnc(NC(=O)C3CCCCC3)s2)c1 | inactive: 88% |
| CCOC(=O)N1CCC(NC(=O)c2ccc3c(c2)N(Cc2ccc(Cl)cc2)C(=O)c2ccccc2S3=O)CC1 (centres undefined) | inactive: 93% |
| COc1ccc(C)c(N2C(=O)CC(N3CCN(c4ccc(F)cc4)CC3)C2=O)c1 (centres undefined) | inactive: 109% |
| CCCCc1nn2c(=O)cc(COC(=O)c3cccs3)nc2s1 | inactive: 71% |
| Cc1ccc(Cn2c(=O)n(Cc3ccccc3Cl)c(=O)c3cccnc32)cc1 | inactive: 86% |
| CCNc1sc(S(C)(=O)=O)nc1S(=O)(=O)c1ccc(C)cc1 | inactive: 119% |
| Cc1cc(C(=O)N2CCN(c3cc(Cl)ccc3C)CC2)c2c(C)nn(-c3ccccc3)c2n1 | inactive: 136% |
| Clc1cccc(-n2ncc3c(N4CCCCCC4)ncnc32)c1 | inactive: 81% |
| Cn1c(=O)n(C)c2cc(N3CCCC3)c(NC(=O)Nc3ccccc3)cc21 | inactive: 70% |

| Compound | survival |
| --- | --- |
| Cc1cc(S(=O)(=O)NC23CC4CC(CC(C4)C2)C3)ccc1-n1cnnn1 | inactive: 105% |
| Cc1ccc(NC(=O)Cn2ncn3c(cc4ccccc43)c2=O)cc1C | inactive: 78% |
| CCc1ccc(NC(=O)CCNC(=O)Cn2cnc3ccccc3c2=O)cc1 | inactive: 70% |
| Cc1ccc(CNC(=O)c2cccc(Nc3nc4ccccc4n4nnnc34)c2)cc1 | inactive: 85% |
| Cc1ccc(N2CCN(c3nc4ccccc4c4nnc(C)n34)CC2)c(C)c1 | inactive: 95% |
| COC(=O)c1ccccc1NC(=O)Cn1c(=O)n(CCCCC(=O)NCc2ccc3c(c2)OCO3)c(=O)c2ccccc21 | inactive: 87% |
| COc1cc(OC)c(NC(=O)c2c(C)oc3ncnc(N4CCCCC4)c23)cc1Cl | inactive: 80% |
| Cn1c(=O)c2c(nc(N3CCOCC3)n2Cc2ccccc2)n(C)c1=O | inactive: 75% |
| Cc1cccc(C)c1NC(=O)Cn1cc(S(=O)(=O)Cc2ccc(F)cc2)c2ccccc21 | inactive: 71% |
| CCN(CC)CC(=O)N1CCCC1=O | inactive: 102% |
| COC(=O)C1C(c2ccccc2)C(C(=O)N2CCN(C)CC2)C1c1ccccc1 (centres undefined) | inactive: 109% |
| O=C(Cn1nc(-c2ccc(Cl)cc2)c2ccccc2c1=O)NCCN1CCOCC1 | inactive: 108% |
| Cc1cc(C)cc(NC(=O)Cn2c(=O)n(CC(=O)NCCc3ccccc3)c(=O)c3ccccc32)c1 | inactive: 83% |
| C=CCN1C(=O)C(CC(=O)NCC)SC1=Nc1ccc(S(N)(=O)=O)cc1 (centres undefined) | inactive: 91% |
| COc1ccc(C(=O)Nc2nnc(SCc3cc(=O)n4cc(Cl)ccc4n3)s2)cc1 | inactive: 55% |
| Cc1ccc(C(=O)c2cn(Cc3c(F)cccc3Cl)c3nc(C)ccc3c2=O)cc1 | inactive: 70% |
| Cc1ccc(CNC(=O)CN2C(=O)COc3ccccc32)cc1 | inactive: 83% |
| CCC(C(=O)NCc1ccc2c(c1)CCN2C(=O)c1ccc(F)cc1)c1ccccc1 (centres undefined) | inactive: 59% |
| CCc1ccc(C2CC(=O)c3c([nH]c(C(=O)OCc4ccc(C)cc4)c3C)C2)cc1 (centres undefined) | inactive: 85% |
| Cc1noc(-c2ccc(-c3noc(-c4ccccc4)n3)cc2)n1 | active: -6% |
| O=C(NCCc1ccc(Cl)cc1)c1ccc(CS(=O)(=O)Cc2ccc(Cl)cc2)o1 | inactive: 83% |
| CCc1nc2ccc(C(=O)NCCc3ccc(OC)cc3OC)cc2nc1CC | inactive: 54% |
| CCOC(=O)c1cc(-c2ccc(C)cc2)n(CCC(=O)Nc2cc(Cl)ccc2C)c1C | inactive: 93% |

| Compound | survival |
| --- | --- |
| CC1CCN(S(=O)(=O)c2ccc3[nH]cc(C(=O)NCc4ccc(F)cc4)c(=O)c3c2)CC1 | inactive: 81% |
| O=C(CSc1nccc(=O)[nH]1)Nc1ccc(Cl)cc1 | inactive: 110% |
| CC(=O)c1cc(-c2ccccc2)n(CCC(=O)Nc2nc3c(C)cccc3s2)c1C | inactive: 78% |
| CCOc1ccc(CCNC(=O)c2cc(Nc3ccc(C)cc3C)nc3ccccc23)cc1OCC | inactive: 135% |
| Cc1ccc(N2CC(NC(=O)Cc3ccc(F)cc3)CC2=O)cc1 (centres undefined) | inactive: 85% |
| O=C1Cc2cc(S(=O)(=O)N3CCCCC3)cc3c2N1CCC3 | inactive: 81% |
| COc1ccccc1NC(=O)Cn1c(=O)n(-c2cccc(Cl)c2)c(=O)c2sc3ccccc3c21 | inactive: 89% |
| COc1cc2[nH]c(=O)n(Cc3ccc(C(=O)NCc4ccc(C)cc4)cc3)c(=O)c2cc1OC | inactive: 68% |
| Cc1cccc(CSc2nc(=O)c3c(n2C)NC(=O)CC3c2cccc(O)c2)c1 (centres undefined) | inactive: 85% |
| Cc1ccc2c(c1)sc1nc(-c3cc4cc(Cl)ccc4oc3=O)cn12 | inactive: 87% |
| O=C(Cn1c(=O)n(Cc2ccc(C(=O)NCc3ccc4c(c3)OCO4)cc2)c(=O)c2ccccc21)Nc1cccc(Cl)c1 | inactive: 104% |
| CC1=C(C(=O)Nc2cccc(C(F)(F)F)c2)C2(CCCCCC2)OC1=O | active: 0% |
| CC(C)CCn1c(=O)c2sccc2n2c(CCCC(=O)Nc3ccc(C(C)C)cc3)nnc12 | inactive: 94% |
| COc1ccc(N2CCN(c3nc4ccccc4n4c(C)nnc34)CC2)cc1 | inactive: 93% |
| CCOC(=O)CC(NS(=O)(=O)c1cc(-c2cc(C)no2)ccc1C)c1ccc(C)cc1 (centres undefined) | inactive: 91% |
| CCOc1ccc2nc(NC(=O)c3nc(SCc4ccc(C)cc4)ncc3Cl)sc2c1 | inactive: 90% |
| CCOc1ccc(C(=O)Nc2ccc3nc4c(c(Nc5ccccc5OC)c3c2)CCCC4)cc1 | inactive: 85% |
| Cc1cccc(C)c1NC(=O)CN(C)S(=O)(=O)c1ccc2[nH]c3c(c2c1)CCCC3 | inactive: 131% |
| Cc1ccc2occ(CC(=O)Nc3c(C(=O)Nc4ccc(Cl)cc4)oc4ccccc34)c2c1 | inactive: 77% |
| CC(C)COc1ccc(C(=O)N2CCC(c3nc4ccccc4s3)CC2)cc1 | inactive: 42% |
| O=C(CC1N=C2c3ccccc3N=C(SCC(=O)Nc3ccccc3F)N2C1=O)NCc1ccc2c(c1)OCO2 (centres undefined) | inactive: 69% |
| Cc1ccc(CSc2nncn3c2cc2sccc23)cc1 | inactive: 87% |
| O=C1CN=C(Nc2ccc(F)cc2)N1C1CCCC1 | inactive: 99% |

| Compound | survival |
| --- | --- |
| CN(C(=O)CSc1nc2ccccc2[nH]1)c1ccc(F)cc1 | inactive: 75% |
| COc1ccc(OC)c(S(=O)(=O)NCc2ccc3c(c2)CCN3C(=O)c2cccc(C)c2)c1 | inactive: 60% |
| Oc1ccc(Br)cc1C=Nc1ccc2[nH]ncc2c1 | inactive: 104% |
| CCCOCc1cc(CN2CCN(c3ccccc3OC)CC2)c(O)c2ncccc12 | inactive: 99% |
| O=C(Cn1c(=O)sc2ccccc21)OCc1ccccc1 | inactive: 118% |
| CCOC(=O)c1c(NC(=O)C(C)Sc2cn(CCNC(=O)c3ccc(OC)cc3)c3ccccc23)sc2c1CCC2 (centres undefined) | inactive: 75% |
| Cc1ccc(CSCCNC(=O)CN(c2cccc(C)c2C)S(=O)(=O)c2ccccc2)cc1 | inactive: 67% |
| O=C(NCc1ccc(Cl)cc1)c1cnc(N2CCOCC2)c2ccccc12 | inactive: 74% |
| COc1ccccc1NC(=O)C1=C(C)Nc2nc(SCC(=O)c3ccc(C)cc3)nn2C1c1ccc(F)cc1 (centres undefined) | inactive: 127% |
| Cc1ccc2c(c1)cc(CN(Cc1ccc3c(c1)OCO3)S(=O)(=O)c1ccccc1)c1nnnn12 | inactive: 104% |
| Cc1cccc(N2C(=O)N(Cc3ccc(C(C)(C)C)cc3)c3ccccc3S2(=O)=O)c1 | inactive: 55% |
| CC1CCCN(S(=O)(=O)c2cc(C(=O)NCCc3ccccc3)n(C)c2)C1 (centres undefined) | inactive: 75% |
| COc1ccc(CNC(=O)c2ccc3c(c2)CCN3S(=O)(=O)c2ccccc2)cc1 | inactive: 80% |
| COC(=O)C1=CNC=C(C(=O)OC)C1c1ccc(C(F)(F)F)cc1 | inactive: 116% |
| Cc1ccccc1CNC(=O)c1ccc(Cn2c(SCc3ccccc3)nc3cccnc32)cc1 | active: -2% |
| O=C(NCc1cccnc1)C1CCCCC1 | inactive: 108% |
| CC(=O)c1cccc(NC(=O)Nc2cc3c(cc2N2CCCC2)n(C)c(=O)n3C)c1 | inactive: 137% |
| CCc1ccc(C(=O)Nc2cccc(-c3nc4cc(C(C)C)ccc4o3)c2)cc1 | inactive: 25% |
| Cc1ccc(Cl)cc1NC(=O)c1ccc2nc(CCc3ccccc3)oc2c1 | inactive: 88% |
| Cc1ccc(-c2nc(CNC(=O)NC3CCCCC3)c(C)o2)cc1 | inactive: 65% |
